Laboratory results as given in PubChem BioAssay AID1259418 (Broad Institute, 2018).
About 840 (25%) of roughly 3,400 compounds were called active. The inconclusive results got no clear call from the source; some entries with a clear call stand among them for comparison.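 The calls were made as follows: active = fitted half-maximal concentration of signal decrease at or below twice the sample's top tested concentration; inconclusive = flat curve between -70 and -30 percent, or poor fit; inactive = flat within 30 percent, signal rise, or potency above limit.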

assay: T. gondii growth inhibition with IFN-gamma, dose response, cell-based, ME49Luc, HeLa, luciferase, 72 h (AID 1259418); conditions: T. gondii ME49Luc in IFN-y HeLa, hits give low values, -100% = high-dose IFN-γ control wells; at 19.5 µM unless noted

Row | Compound | max activity
1 | N#Cc1cccc(-c2ccc(C3[C@@H]4CN(Cc5ccccc5)C[C@H]3N4)cc2)c1 (stereo partly drawn) | inconclusive: 9.64% [at 10 µM]
2 | Cc1cccc(OCC(=O)Nc2ccc(-c3nc(-c4ccccc4)co3)cc2)c1C | inactive: -18.6% [at 2.6 µM]
3 | COc1cccc(C(=O)Nc2ccc3c(c2)C(=O)N(C)[C@H]2CC[C@@H](CC(=O)N[C@H](C)c4ccccc4)O[C@H]2CO3)c1 | inconclusive: -28.9% [at 0.16 µM]
4 | CCCCNC(=O)CCC1N=C2c3ccccc3N=C(SCc3cc(=O)n4cc(Cl)ccc4n3)N2C1=O (stereo not drawn) | inconclusive: 150%
5 | CCOc1ccc(-c2nc(CN(c3ccc(C)cc3)S(=O)(=O)c3cccs3)c(C)o2)cc1 | inconclusive: -57.1%
6 | C/C=C/c1ccc([C@H]2[C@@H](CO)N3C(=O)CN(C(=O)Nc4ccc(F)cc4)C[C@@H]23)cc1 | inconclusive: -31.5% [at 0.16 µM]
7 | Cc1nc(OCC(=O)Nc2ccc3c(c2)OCO3)c2ccccc2n1 | inactive: 12.1% [at 5 µM]
8 | Cc1cccc(CNC2=NCCNC23CCN(S(=O)(=O)c2ccc(C)c(C)c2)CC3)c1 | inactive: -21.5%
9 | Cc1ccccc1-c1ccc([C@@H]2[C@H]3CN(C(=O)c4ccncc4)CC(=O)N3[C@H]2CO)cc1 | inconclusive: -40.6% [at 10 µM]
10 | Cc1ccc(S(=O)(=O)N2CCC[C@@H]2C(=O)NCCc2csc(-c3ccccc3)n2)cc1C | inconclusive: -64.7%
11 | COc1ccc(S(=O)(=O)N2CCCCN3[C@H](C2)[C@@H](c2ccc(C#CCC(C)C)cc2)[C@@H]3CO)cc1 | inconclusive: 118% [at 5 µM]
12 | Cc1nc(CCNC(=O)C2CCN(S(=O)(=O)c3ccc(F)c(Cl)c3)CC2)cs1 | inactive: 8.69% [at 5 µM]
13 | COCC#Cc1ccc([C@H]2[C@@H](CO)N3C(=O)CN(C(=O)C4CCCCC4)C[C@@H]23)cc1 | inactive: 51.9%
14 | Cc1ccc(C(=O)Nc2ccc3c(c2)CCC(=O)N3)c(C)c1 | inactive: 42%
15 | O=C(NCCc1csc(-c2ccccc2)n1)[C@H]1CSCN1S(=O)(=O)Cc1ccccc1 | inactive: 17.7% [at 2.6 µM]
16 | Cc1cc(NC(=O)Nc2ccc(-c3nc(-c4ccccc4)co3)cc2)ccc1Br | inconclusive: -19.4% [at 5 µM]
17 | COc1ccc(-c2nc3c(s2)CN(C(=O)Nc2cccc(SC)c2)CC3)cc1 | inconclusive: -19.2% [at 0.16 µM]
18 | Cc1nc(CCNC(=O)[C@H]2CCCN2S(=O)(=O)c2ccc3c(c2)CCCC3)cs1 | inactive: 26.6% [at 0.35 µM]
19 | CCOc1ccccc1NC(=O)CN1CCC2(CC1)N=C(c1ccc(F)cc1)C(=O)N2 | inactive: 13%
20 | O=C(CCC1Nc2c3ccccc3nc(=S)n2C1=O)N1CCN(c2ccccc2F)CC1 (stereo not drawn) | inactive: 35.9%
21 | CN(C)C(=O)c1cccc(-c2ccc3c(c2)[C@H]2[C@H](CCN2C(=O)Cc2ccccc2)[C@H](CO)N3)c1 | inconclusive: -60.6% [at 21 µM]
22 | CCOC(=O)c1ccc(NC(=O)N2CCN(Cc3nc(-c4cccc(Cl)c4)oc3C)CC2)cc1 | inactive: 13.5% [at 1.35 µM]

Row | Compound | max activity
23 | O=C(Nc1ccc(-c2nc(-c3ccccc3)co2)cc1)Nc1cccc(C(F)(F)F)c1 | inconclusive: -11.2% [at 2.6 µM]
24 | Cc1ccc(-c2nc(CSc3nc4c(c(=O)[nH]3)CN(Cc3ccccc3)CC4)c(C)o2)cc1 | inactive: -18% [at 0.68 µM]
25 | COc1ccc2c(c1)NC1(CCN(C(=O)Cc3cccc(F)c3)CC1)c1cccn1-2 | inconclusive: -31.2% [at 2.6 µM]
26 | Cn1cccc1C(=O)N1CCC2(CC1)CN(CC1CC1)C(=O)CO2 | inconclusive: 15.5%
27 | CCCCN(CC)c1nc(-c2ccc(OC)cc2)nc2ccccc12 | inconclusive: -39.2% [at 1.35 µM]
28 | Cc1ccccc1-c1ccc([C@@H]2[C@@H](CO)N3C(=O)CN(C(=O)c4ccncc4)C[C@@H]23)cc1 | inconclusive: -14.9%
29 | COc1ccccc1NC(=O)N1C[C@@H]2N[C@H](C1)C2c1ccc(/C=C/c2ccccc2)cc1 (stereo partly drawn) | inconclusive: 229% [at 5 µM]
30 | COc1ccc(-c2nc3c(s2)CN(C(=O)Nc2ccc(C)c(C)c2)CC3)cc1 | inconclusive: 76% [at 10 µM]
31 | CS(=O)(=O)N1[C@H](CO)[C@@H](c2ccc(C#Cc3cccc(F)c3)cc2)[C@@H]1C#N | inconclusive: -31.6% [at 1.1 µM]
32 | COc1ccc(C(=O)N2CCC3(CC2)Nc2ccc(C)c(C)c2-n2cccc23)cc1 | inactive: 7.01% [at 0.68 µM]
33 | O=C(CCC1N=C2c3ccccc3N=C(SCc3ccc(F)cc3)N2C1=O)NCc1ccco1 (stereo not drawn) | inconclusive: -15%
34 | CC(C)Nc1ncnc2c1cnn2-c1ccc(Cl)cc1 | inconclusive: 196% [at 0.35 µM]
35 | O=C(c1cccc(F)c1)N1CC(=O)N2[C@H](CO)[C@@H](c3ccc(/C=C/c4ccccc4)cc3)[C@H]2C1 | inconclusive: 21.4% [at 5 µM]
36 | COc1cccc(C(=O)Nc2ccc(-c3nc(-c4ccc(C)cc4)co3)cc2)c1 | inactive: 73.1%
37 | CCc1c(C)sc2c1CCN(Cc1nc(-c3ccc(OC)c(OC)c3)oc1C)C2c1ccccc1 (stereo not drawn) | inconclusive: -60.9% [at 1.35 µM]
38 | O=C1CCc2cc(S(=O)(=O)N3CCC(Cc4ccccc4)CC3)cc3c2N1CCC3 | inactive: 11.4% [at 1.35 µM]
39 | COc1cccc(S(=O)(=O)N2CCCCN3[C@@H](CO)[C@H](c4ccc(C#CCC(C)C)cc4)[C@@H]3C2)c1 | inconclusive: -84.3%
40 | COCCN(Cc1ccco1)c1nc(-c2ccc(OC)cc2)nc2ccccc12 | inconclusive: -59.6% [at 0.35 µM]
41 | CCOc1ccc(S(=O)(=O)N2CCC[C@@H]2C(=O)NCCc2csc(-c3ccccc3)n2)cc1 | inconclusive: -66.3%
42 | N#C[C@H]1[C@@H](c2ccc(-c3cccc(F)c3)cc2)[C@H](CO)N1C(=O)NC1CCCC1 | inconclusive: 35.9%
43 | Cc1oc(-c2ccc(OC(C)C)cc2)nc1CN(c1ccccc1)S(=O)(=O)c1ccccc1 | inactive: 5.29%
